From the supplement of paper PMC7826260
The other results are listed elsewhere or left out. Viral Rep nickase domains cut single-stranded DNA in vitro at 3 µM enzyme and 37 °C for 1 h; the strands have 90 letters, of which the middle is given. A value is the log2 ratio of uncut reads to the pool without enzyme; the lower, the more was cut; hits are not called. Counts are relative to all reads; where an enzyme cuts many sequences, the uncut ones exceed 0.

Columns and labels:
Assay in all cases: uncleaved DNA left, log2 of reads against the no-enzyme library (log2 ratio); higher = less cleavage (more negative = more Rep cleavage of the k-mer); sequences stand for … in CTCGTCCG…ACCGGAGA
[1] = test system: T1, Rep nickase domain of Muscovy duck circovirus
T1 sequence (Rep 1-111, printed without the tag): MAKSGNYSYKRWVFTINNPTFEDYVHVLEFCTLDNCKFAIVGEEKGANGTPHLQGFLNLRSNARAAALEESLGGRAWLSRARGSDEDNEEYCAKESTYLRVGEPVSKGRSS
Experimental: (§1)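 A pool of 90-nt single-stranded DNAs with seven random bases just before the constant AC of the nick site (name = the seven bases) was cut by 3 µM recombinant His6-SUMO-tagged Rep nickase domain (300 nM DNA, 50 mM HEPES pH 8.0, 50 mM NaCl, 1 mM MnCl2, 1 h, 37 °C, three replicates). Uncut DNA was amplified and sequenced.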

[2] = test system: T2, Rep nickase domain of banana bunchy top virus
T2 sequence (Rep 1-94, printed without the tag): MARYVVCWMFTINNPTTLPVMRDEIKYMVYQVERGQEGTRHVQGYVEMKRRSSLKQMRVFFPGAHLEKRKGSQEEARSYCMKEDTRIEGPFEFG
Experimental: as §1

[3] = test system: T3, Rep nickase domain of cabbage leaf curl virus
T3 sequence (Rep 1-116, printed without the tag): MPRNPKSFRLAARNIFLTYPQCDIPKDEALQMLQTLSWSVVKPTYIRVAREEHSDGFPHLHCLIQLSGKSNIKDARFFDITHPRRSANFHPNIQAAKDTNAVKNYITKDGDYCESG
Experimental: as §1

[4] = test system: T4, Rep nickase domain of chickpea chlorotic dwarf virus
T4 sequence (Rep 1-124, printed without the tag): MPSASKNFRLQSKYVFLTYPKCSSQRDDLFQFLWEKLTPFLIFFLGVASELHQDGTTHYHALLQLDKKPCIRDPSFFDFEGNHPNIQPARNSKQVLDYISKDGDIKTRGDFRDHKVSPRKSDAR
Experimental: as §1

[5] = test system: T5, Rep nickase domain of faba bean necrotic yellows virus
T5 sequence (Rep 1-98, printed without the tag): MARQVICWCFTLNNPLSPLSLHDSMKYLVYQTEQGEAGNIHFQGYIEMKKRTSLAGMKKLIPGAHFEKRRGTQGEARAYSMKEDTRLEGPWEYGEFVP
Experimental: as §1

[6] = test system: T6, Rep nickase domain of maize striate mosaic virus
T6 sequence (Rep 1-117, printed without the tag): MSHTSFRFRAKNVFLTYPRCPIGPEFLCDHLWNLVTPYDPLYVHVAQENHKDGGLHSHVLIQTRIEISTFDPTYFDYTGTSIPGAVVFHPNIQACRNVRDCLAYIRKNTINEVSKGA
Experimental: as §1

[7] = test system: T7, Rep nickase domain of porcine circovirus 2
T7 sequence (Rep 2-116, printed without the tag): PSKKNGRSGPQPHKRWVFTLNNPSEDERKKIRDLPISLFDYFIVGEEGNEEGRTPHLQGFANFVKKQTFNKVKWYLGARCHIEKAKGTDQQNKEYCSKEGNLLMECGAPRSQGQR
Experimental: as §1

[8] = test system: T8, Rep nickase domain of tomato golden mosaic virus
T8 sequence (Rep 1-124, printed without the tag): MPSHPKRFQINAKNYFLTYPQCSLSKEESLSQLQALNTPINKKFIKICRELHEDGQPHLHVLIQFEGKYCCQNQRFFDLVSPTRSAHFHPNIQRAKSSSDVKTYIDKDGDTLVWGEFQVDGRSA
Experimental: as §1

[9] = test system: T9, Rep nickase domain of tomato yellow leaf curl virus
T9 sequence (Rep 1-136, printed without the tag): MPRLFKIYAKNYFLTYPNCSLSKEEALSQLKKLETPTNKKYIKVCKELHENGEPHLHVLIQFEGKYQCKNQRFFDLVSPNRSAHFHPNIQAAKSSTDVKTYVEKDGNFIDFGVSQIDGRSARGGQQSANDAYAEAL
Experimental: as §1

[10] = test system: T10, Rep nickase domain of wheat dwarf virus
T10 sequence (Rep 1-137, printed without the tag): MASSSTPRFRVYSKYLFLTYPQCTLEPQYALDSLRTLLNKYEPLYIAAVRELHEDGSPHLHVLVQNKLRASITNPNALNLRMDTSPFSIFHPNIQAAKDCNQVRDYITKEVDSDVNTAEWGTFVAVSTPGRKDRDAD
Experimental: as §1

| Sequence | uncleaved DNA left (log2) [1] | uncleaved DNA left (log2) [2] | uncleaved DNA left (log2) [3] | uncleaved DNA left (log2) [4] | uncleaved DNA left (log2) [5] | uncleaved DNA left (log2) [6] | uncleaved DNA left (log2) [7] | uncleaved DNA left (log2) [8] | uncleaved DNA left (log2) [9] | uncleaved DNA left (log2) [10] |
| --- | --- | --- | --- | --- | --- | --- | --- | --- | --- | --- |
| TGACAAG | -0.0854 | -0.0111 | -0.512 | -0.45 | -0.0289 | -1.01 | -0.044 | -0.0247 | 0.114 | -0.0645 |
| AGCTGTC | -0.0111 | -0.0119 | 0.268 | 1.22 | -0.0623 | 1.18 | 0.2 | -0.0181 | -0.0587 | 0.0262 |
| CATCTAA | 0.0667 | 0.0714 | -0.0584 | -0.495 | -0.0295 | -0.495 | 0.022 | 0.112 | 0.0406 | 0.0617 |
| CGCATAT | 0.0489 | -0.0571 | 0.018 | -0.412 | -0.00607 | -0.389 | -0.0903 | -0.152 | 0.0228 | 0.0205 |
| TCCCGCA | -0.239 | -0.207 | -0.4 | -1.05 | -0.148 | -0.94 | -0.227 | -0.165 | -0.234 | -0.174 |
| ACTGCAT | -0.0703 | -0.0791 | -0.272 | -0.257 | 0.0554 | -0.742 | -0.0575 | -0.0437 | -0.0729 | -0.129 |
| ACAAGGA | -0.0285 | -0.00849 | 0.0605 | 0.274 | 0.0426 | -0.824 | 0.0635 | 0.0215 | -0.133 | -0.0527 |
| TCTATAA | 0.14 | -0.00322 | -0.0106 | -0.066 | 0.0225 | -0.336 | 0.0019 | 0.0478 | -0.0543 | -0.0674 |
| TCATTTC | 0.0199 | -0.000387 | -0.237 | -0.72 | -0.176 | -1.19 | -0.0376 | -0.0264 | -0.0139 | -0.0763 |
| AAATGAC | -0.0653 | -0.0411 | -0.334 | -0.0132 | 0.047 | -0.52 | 0.0825 | 0.0287 | 0.02 | 0.0184 |
| TGCTCAA | 0.106 | 0.181 | 0.16 | 0.196 | 0.0928 | -0.208 | 0.0552 | 0.103 | 0.205 | 0.224 |
| GGAGAAA | 0.178 | 0.269 | 0.863 | 1.81 | 0.132 | 2.18 | 0.307 | 0.244 | 0.329 | 0.412 |
| CCAAGTG | -0.0933 | -0.142 | 0.0182 | 0.661 | -0.126 | 0.509 | 0.0736 | -0.0392 | -0.166 | -0.0569 |
| GTCGATT | 0.0435 | -0.022 | 0.337 | 0.4 | -0.0741 | 1.41 | -0.103 | -0.197 | 0.0233 | 0.0515 |
| TGCGCCC | -0.0441 | -0.0975 | -0.0556 | -0.25 | -0.076 | -0.416 | 0.0162 | -0.0991 | 0.0372 | -0.129 |
| CCTACAT | -0.0424 | 0.0223 | 0.175 | -1.55 | -0.176 | 0.0781 | -0.0713 | -0.0463 | 0.0176 | 0.122 |

| Sequence | uncleaved DNA left (log2) [1] | uncleaved DNA left (log2) [2] | uncleaved DNA left (log2) [3] | uncleaved DNA left (log2) [4] | uncleaved DNA left (log2) [5] | uncleaved DNA left (log2) [6] | uncleaved DNA left (log2) [7] | uncleaved DNA left (log2) [8] | uncleaved DNA left (log2) [9] | uncleaved DNA left (log2) [10] |
| --- | --- | --- | --- | --- | --- | --- | --- | --- | --- | --- |
| GAGTTAT | -0.104 | -0.401 | 0.358 | 0.531 | -0.225 | 1.52 | -2.91 | 0.126 | 0.108 | 0.278 |
| GTCCTGA | 0.0242 | 0.0986 | 0.31 | 0.83 | -0.16 | 1.74 | -0.0401 | 0.116 | 0.0519 | 0.0915 |
| TTTACTT | -0.094 | -0.0668 | 0.147 | -2.46 | 0.0148 | 0.303 | -0.783 | 0.00706 | 0.0741 | 0.000416 |
| AGCAAAT | 0.198 | 0.166 | 0.084 | 0.241 | 0.000626 | 0.463 | -0.0959 | 0.0104 | 0.108 | 0.128 |
| CAAAATG | 0.246 | 0.0232 | -0.584 | -1.01 | 0.0992 | -1.07 | 0.13 | 0.0838 | 0.0818 | -0.0342 |
| TCCGTAT | -0.151 | -0.287 | -0.0156 | -0.26 | -0.162 | 0.253 | -0.178 | -0.158 | -0.0294 | -0.114 |
| AGTACCA | -0.0218 | 0.159 | 0.181 | -0.354 | -6.58e-05 | 0.645 | -0.479 | 0.0311 | 0.0658 | 0.169 |
| CATTGTT | -3.57 | -3.84 | -2.14 | -2.91 | -1.07 | -1.85 | -3.85 | -0.751 | 0.0454 | -0.672 |
| TACGATG | 0.0264 | -0.0342 | -0.174 | 0.0517 | -0.0794 | 0.193 | 0.115 | -0.175 | -0.0896 | -0.0518 |
| GTTGCTC | -0.00252 | 0.0364 | 0.0575 | 0.34 | -0.0575 | 0.152 | 0.0837 | -0.0699 | -0.0334 | -0.0931 |
| CAGGGGC | -0.0406 | 0.0415 | 0.495 | 1.06 | 0.0243 | 1.15 | 0.216 | 0.119 | 0.0478 | 0.11 |
| GCGGGCA | 0.0875 | 0.137 | 0.87 | 1.78 | -0.0419 | 2.02 | 0.164 | -0.0189 | 0.0587 | 0.113 |
| GGCTCGG | 0.0208 | 0.128 | 0.471 | 1.21 | 0.0315 | 1.92 | 0.0403 | 0.136 | 0.00651 | 0.0463 |
| CAATGCT | -2.36 | -0.333 | -4.18 | -3.04 | -0.0132 | -3.26 | -3.94 | -3.61 | -0.268 | -3.48 |
| AACTACT | -3.57 | -3.41 | -2.63 | -3.1 | -0.624 | -1.06 | -4.06 | -0.451 | 0.0484 | -0.426 |
